# Data from the supplement of paper PMC8728848.
# This is one part of the list.
# B1: Thrombomodulin (Mus musculus) (protein)
# chain: ALAKLQPTGSQCVEHECFALFQGPATFLDASQACQRLQGHLMTVRSSVAADVISLLLSQSSMDLGPWIGLQLPQGCDDPVHLGPLRGFQWVTGDNHTSYSRWARPNDQTAPLCGPLCVTVSTATEAAPGEPAWEEKPCETETQGFLCEFYFTASC
# Experiments:
# Assay in all cases: glycan array binding signal (z-score within array); higher = stronger binding
# Conditions in all cases: glycan notation: IUPAC condensed, linker removed
# Gal(b1-2)Gal = target: Gal(b1-2)Gal
# Summary of the method: (§1)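 The binding signal is a Z-score computed within each array. Data were drawn from 3228 arrays in the Consortium for Functional Glycomics database, restricted to those with a known protein sequence. Scores were averaged over arrays of the same protein sequence at different concentrations or buffers, and over linkers, and negative values can be taken as non-binding.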
# Gal(b1-3)Gal = target: Gal(b1-3)Gal
# Summary of the method: as §1
# Gal(b1-3)Gal(b1-4)GlcNAc = target: Gal(b1-3)Gal(b1-4)GlcNAc
# Summary of the method: as §1
# Gal(b1-3)GalNAc = target: Gal(b1-3)GalNAc
# Summary of the method: as §1
# [1] = target: Gal(b1-3)GalNAc(a1-3)[Fuc(a1-2)]Gal(b1-4)Glc
# Summary of the method: as §1
# [2] = target: Gal(b1-3)GalNAc(a1-3)[Fuc(a1-2)]Gal(b1-4)GlcNAc
# Summary of the method: as §1
# Gal(b1-3)GalNAc(b1-3)Gal = target: Gal(b1-3)GalNAc(b1-3)Gal
# Summary of the method: as §1
# [3] = target: Gal(b1-3)GalNAc(b1-3)Gal(a1-4)Gal(b1-4)Glc
# Summary of the method: as §1
# [4] = target: Gal(b1-3)GalNAc(b1-4)Gal(b1-4)Glc
# Summary of the method: as §1
# [5] = target: Gal(b1-3)GalNAc(b1-4)[Neu5Ac(a2-3)]Gal(b1-4)Glc
# Summary of the method: as §1
# Gal(b1-3)GlcNAc = target: Gal(b1-3)GlcNAc
# Summary of the method: as §1
# [6] = target: Gal(b1-3)GlcNAc(a1-3)Gal(b1-4)GlcNAc
# Summary of the method: as §1
# [7] = target: Gal(b1-3)GlcNAc(a1-6)Gal(b1-4)GlcNAc
# Summary of the method: as §1
# Gal(b1-3)GlcNAc(b1-2)Man = target: Gal(b1-3)GlcNAc(b1-2)Man
# Summary of the method: as §1
# [8] = target: Gal(b1-3)GlcNAc(b1-2)Man(a1-3)[Gal(b1-3)GlcNAc(b1-2)Man(a1-6)]Man(b1-4)GlcNAc(b1-4)GlcNAc
# Summary of the method: as §1
# [9] = target: Gal(b1-3)GlcNAc(b1-2)Man(a1-3)[Gal(b1-3)GlcNAc(b1-2)Man(a1-6)]Man(b1-4)GlcNAc(b1-4)[Fuc(a1-6)]GlcNAc
# Summary of the method: as §1
# [10] = target: Gal(b1-3)GlcNAc(b1-2)Man(a1-3)[GlcNAc(b1-4)][Gal(b1-3)GlcNAc(b1-2)Man(a1-6)]Man(b1-4)GlcNAc(b1-4)GlcNAc
# Summary of the method: as §1
# [11] = target: Gal(b1-3)GlcNAc(b1-2)[Gal(b1-3)GlcNAc(b1-6)]Man(a1-6)[Gal(b1-3)GlcNAc(b1-2)Man(a1-3)]Man(b1-4)GlcNAc(b1-4)GlcNAc
# Summary of the method: as §1
# [12] = target: Gal(b1-3)GlcNAc(b1-3)Gal(b1-3)GlcNAc
# Summary of the method: as §1
# [13] = target: Gal(b1-3)GlcNAc(b1-3)Gal(b1-4)Glc
# Summary of the method: as §1
# [14] = target: Gal(b1-3)GlcNAc(b1-3)Gal(b1-4)GlcNAc
# Summary of the method: as §1
# [15] = target: Gal(b1-3)GlcNAc(b1-3)Gal(b1-4)GlcNAc(b1-2)Man(a1-3)[Gal(b1-3)GlcNAc(b1-3)Gal(b1-4)GlcNAc(b1-2)Man(a1-6)]Man(b1-4)GlcNAc(b1-4)GlcNAc
# Summary of the method: as §1
# [16] = target: Gal(b1-3)GlcNAc(b1-3)Gal(b1-4)GlcNAc(b1-2)[Gal(b1-3)GlcNAc(b1-3)Gal(b1-4)GlcNAc(b1-6)]Man(a1-6)[Gal(b1-3)GlcNAc(b1-3)Gal(b1-4)GlcNAc(b1-2)Man(a1-3)]Man(b1-4)GlcNAc(b1-4)[Fuc(a1-6)]GlcNAc
# Summary of the method: as §1
# [17] = target: Gal(b1-3)GlcNAc(b1-3)Gal(b1-4)GlcNAc(b1-3)Gal(b1-4)GlcNAc(b1-2)[Gal(b1-3)GlcNAc(b1-3)Gal(b1-4)GlcNAc(b1-3)Gal(b1-4)GlcNAc(b1-6)]Man(a1-6)[Gal(b1-3)GlcNAc(b1-3)Gal(b1-4)GlcNAc(b1-3)Gal(b1-4)GlcNAc(b1-2)Man(a1-3)]Man(b1-4)GlcNAc(b1-4)[Fuc(a1-6)]GlcNAc
# Summary of the method: as §1
# [18] = target: Gal(b1-3)GlcNAc(b1-3)Gal(b1-4)GlcNAc(b1-6)[Gal(b1-3)GlcNAc(b1-3)]Gal(b1-4)Glc
# Summary of the method: as §1
# [19] = target: Gal(b1-3)GlcNAc(b1-3)Gal(b1-4)[Fuc(a1-3)]GlcNAc
# Summary of the method: as §1
# [20] = target: Gal(b1-3)GlcNAc(b1-3)Gal(b1-4)[Fuc(a1-3)]GlcNAc(b1-6)[Gal(b1-3)GlcNAc(b1-3)]Gal(b1-4)Glc
# Summary of the method: as §1
# [21] = target: Gal(b1-3)GlcNAc(b1-3)GalNAc
# Summary of the method: as §1
# [22] = target: Gal(b1-3)GlcNAc(b1-6)Gal(b1-4)GlcNAc
# Summary of the method: as §1
# [23] = target: Gal(b1-3)GlcNAc(b1-6)GalNAc
# Summary of the method: as §1
# [24] = target: Gal(b1-3)GlcNAc(b1-6)[Gal(b1-3)]GalNAc
# Summary of the method: as §1
# Gal(b1-3)GlcNAc6S = target: Gal(b1-3)GlcNAc6S
# Summary of the method: as §1
# [25] = target: Gal(b1-3)[Fuc(a1-4)]GlcNAc
# Summary of the method: as §1
# [26] = target: Gal(b1-3)[Fuc(a1-4)]GlcNAc(b1-2)Man
# Summary of the method: as §1
# [27] = target: Gal(b1-3)[Fuc(a1-4)]GlcNAc(b1-2)Man(a1-3)[Gal(b1-3)[Fuc(a1-4)]GlcNAc(b1-2)Man(a1-6)]Man(b1-4)GlcNAc(b1-4)[Fuc(a1-6)]GlcNAc
# Summary of the method: as §1
# [28] = target: Gal(b1-3)[Fuc(a1-4)]GlcNAc(b1-3)Gal(b1-3)[Fuc(a1-4)]GlcNAc
# Summary of the method: as §1
# [29] = target: Gal(b1-3)[Fuc(a1-4)]GlcNAc(b1-3)Gal(b1-4)[Fuc(a1-3)]GlcNAc
# Summary of the method: as §1
# [30] = target: Gal(b1-3)[Fuc(a1-4)]GlcNAc(b1-6)GalNAc
# Summary of the method: as §1
# [31] = target: Gal(b1-3)[GlcNAc(b1-6)]GalNAc
# Summary of the method: as §1
# [32] = target: Gal(b1-3)[Neu5Ac(a2-6)]GalNAc
# Summary of the method: as §1
# [33] = target: Gal(b1-3)[Neu5Ac(a2-6)]GlcNAc(b1-4)Gal(b1-4)Glc
# Summary of the method: as §1
# [34] = target: Gal(b1-3)[Neu5Ac(b2-6)]GalNAc
# Summary of the method: as §1
# Gal(b1-4)Gal = target: Gal(b1-4)Gal
# Summary of the method: as §1
# [35] = target: Gal(b1-4)GalNAc(a1-3)[Fuc(a1-2)]Gal(b1-4)GlcNAc
# Summary of the method: as §1
# [36] = target: Gal(b1-4)GalNAc(b1-3)[Fuc(a1-2)]Gal(b1-4)GlcNAc
# Summary of the method: as §1
binder,measurement,setting,value
B1,glycan array binding signal (z-score),Gal(b1-2)Gal,-0.301
same,glycan array binding signal (z-score),Gal(b1-3)Gal,0.08
same,glycan array binding signal (z-score),Gal(b1-3)Gal(b1-4)GlcNAc,-0.219
same,glycan array binding signal (z-score),Gal(b1-3)GalNAc,-0.048
same,glycan array binding signal (z-score),[1],-0.25
same,glycan array binding signal (z-score),[2],0.025
same,glycan array binding signal (z-score),Gal(b1-3)GalNAc(b1-3)Gal,0.257
same,glycan array binding signal (z-score),[3],-0.277
same,glycan array binding signal (z-score),[4],0.289
same,glycan array binding signal (z-score),[5],0.315
same,glycan array binding signal (z-score),Gal(b1-3)GlcNAc,0.002
same,glycan array binding signal (z-score),[6],-0.11
same,glycan array binding signal (z-score),[7],-0.192
same,glycan array binding signal (z-score),Gal(b1-3)GlcNAc(b1-2)Man,0.457
same,glycan array binding signal (z-score),[8],-0.121
same,glycan array binding signal (z-score),[9],-0.294
same,glycan array binding signal (z-score),[10],-0.424
same,glycan array binding signal (z-score),[11],0.037
same,glycan array binding signal (z-score),[12],0.083
same,glycan array binding signal (z-score),[13],0.106
same,glycan array binding signal (z-score),[14],-0.283
same,glycan array binding signal (z-score),[15],-0.022
same,glycan array binding signal (z-score),[16],-0.125
same,glycan array binding signal (z-score),[17],-0.27
same,glycan array binding signal (z-score),[18],0.148
same,glycan array binding signal (z-score),[19],-0.198
same,glycan array binding signal (z-score),[20],-0.066
same,glycan array binding signal (z-score),[21],-0.491
same,glycan array binding signal (z-score),[22],-0.192
same,glycan array binding signal (z-score),[23],-0.186
same,glycan array binding signal (z-score),[24],-0.267
same,glycan array binding signal (z-score),Gal(b1-3)GlcNAc6S,-0.075
same,glycan array binding signal (z-score),[25],-0.229
same,glycan array binding signal (z-score),[26],0.418
same,glycan array binding signal (z-score),[27],0.595
same,glycan array binding signal (z-score),[28],-0.012
same,glycan array binding signal (z-score),[29],0.029
same,glycan array binding signal (z-score),[30],-0.221
same,glycan array binding signal (z-score),[31],-0.047
same,glycan array binding signal (z-score),[32],-0.193
same,glycan array binding signal (z-score),[33],-0.124
same,glycan array binding signal (z-score),[34],0.148
same,glycan array binding signal (z-score),Gal(b1-4)Gal,-0.347
same,glycan array binding signal (z-score),[35],-0.417
same,glycan array binding signal (z-score),[36],-0.214
